{"source": "the supplement of paper PMC11417369", "note": "± gives the standard deviation of the averaged measurements. Some of the results follow."}
{"tested_on": "PfAP2-I AP2 domain 3 (GST-tagged)", "test": "gcPBM binding intensity (ln(normalized median fluorescence intensity)); higher = stronger DNA binding", "how_it_was_run": "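An Agilent 4 × 180k array carrying primer-extended double-stranded 36-bp intergenic genomic probes and negative controls received GST-tagged P. falciparum DNA-binding domains expressed in E. coli, about 25 μg on average, for 1 h. The binding buffer contained 1× PBS, 1% milk, 0.2 mg/ml BSA, 0.5% salmon testes DNA and 0.03% Triton X-100. Binding intensity is the top Masliner-normalised natural-log median intensity across replicate spots of either probe orientation, read after Alexa488 anti-GST antibody staining and a 488 nm scan.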"}
{"sequence": "ATTGCCATTGTTAATGCATGTAACAATTCAGCTCAT [TGCATGCA_site56]", "gcPBM binding intensity (ln)": "8 ± 0.83"}
{"sequence": "AAAATTATTTAGTAAGTGCAAAAAAAAAAAAAAAAA", "gcPBM binding intensity (ln)": "10.1 ± 0.23"}
{"sequence": "AATTTGATTATAAATTGTACATATATATATTAAAAG [XGTACX_site5461]", "gcPBM binding intensity (ln)": "7.95 ± 0.41"}
{"sequence": "TTTTTGTAAACCTACTTCATAATTATTTATATCTAT [XGTACX_negctrl_site599]", "gcPBM binding intensity (ln)": "7.67 ± 0.87"}
{"sequence": "ACATATATTTATATATGTACATATGATATATACATA [XGTACX_site6122]", "gcPBM binding intensity (ln)": "8.02 ± 0.092"}
{"sequence": "CTTTTGTATATTATATGTACACACAATAAGTTAATA [XGTACX_site1684]", "gcPBM binding intensity (ln)": "7.93 ± 0.32"}
{"sequence": "TACATATAAACAATAACACACACCTAGGTACATGGA [CACACA_site8178]", "gcPBM binding intensity (ln)": "7.75 ± 0.57"}
{"sequence": "AATTAACAAAAACACACACACACACCCACAAAAAAA [CACACA_site517]", "gcPBM binding intensity (ln)": "8.315 ± 0.078"}
{"sequence": "AGGCTATAATACCATACACACATTTATAAAATAACA [CACACA_site6990]", "gcPBM binding intensity (ln)": "7.86 ± 0.59"}
{"sequence": "TAAAAATTTGATCAAACACACGTTGCATAAATTATA [CACACA_site6040]", "gcPBM binding intensity (ln)": "7.98 ± 0.51"}
{"sequence": "TATTTATTAAGACACACACACACACGCACAAAATAA [CACACA_site6254]", "gcPBM binding intensity (ln)": "8.71 ± 0.057"}
{"sequence": "AGGGTTCATATATTAACACACACATACATATTATAT [CACACA_site8959]", "gcPBM binding intensity (ln)": "7.9 ± 0.57"}
{"sequence": "TATACACATATATATAGTACATATATAATTTACTAT [XGTACX_site1849]", "gcPBM binding intensity (ln)": "7.64 ± 0.19"}
{"sequence": "AGTATTCTAATTTTTAAACACACAAATATAAATAAG [CACACA_site9029]", "gcPBM binding intensity (ln)": "7.92 ± 0.18"}
{"sequence": "ATATATACCTATATTACACACTTCTTATTCTAAGAA [CACACA_site7421]", "gcPBM binding intensity (ln)": "7.86 ± 0.52"}
{"sequence": "ATTGTTACATAAAATGCACACTTTCAAATATGCTAA [CACACA_site5600]", "gcPBM binding intensity (ln)": "9.18 ± 0.11"}
{"sequence": "TGAAATTAAATATATACACACATATATATTTATATG [CACACA_site3516]", "gcPBM binding intensity (ln)": "7.46 ± 0.35"}
{"sequence": "AAACAAAAGGAAAACATATATATATTAAATGTATAT [CACACA_negctrl_site1663]", "gcPBM binding intensity (ln)": "7.49 ± 0.7"}
{"sequence": "ATTTAGAATGTTCCTACACACCAAATTTAAGGGTGC [CACACA_site5320]", "gcPBM binding intensity (ln)": "7.73 ± 0.52"}
{"sequence": "TTTTTTTTTCTCCATACACACTTGATAAAACTTTTT [CACACA_site4512]", "gcPBM binding intensity (ln)": "8.04 ± 0.56"}
{"sequence": "ATTTATATTCCAATATGTACATATTTTCGTATAACC [XGTACX_site8507]", "gcPBM binding intensity (ln)": "7.95 ± 0.71"}
{"sequence": "ATTACAAATTCTTTCAGTACATATAAAGAAAAAAAT [XGTACX_site7786]", "gcPBM binding intensity (ln)": "7.87 ± 0.49"}
{"sequence": "TTAAAAAACATTTGAACATGCAATTGTATATGTAGA [TGCATGCA_site334]", "gcPBM binding intensity (ln)": "7.53 ± 0.64"}
{"sequence": "ATATTAAAAAGGAAATGTACGTAATGAAGATCAAGT [XGTACX_site3138]", "gcPBM binding intensity (ln)": "8.73 ± 0.51"}
{"sequence": "TAAATAAAAAGACACACACACATATTTATATTTATA [CACACA_site7135]", "gcPBM binding intensity (ln)": "7.67 ± 0.49"}
{"sequence": "GAGAAAAATATATACACACACATAAATATATACATA [CACACA_site1895]", "gcPBM binding intensity (ln)": "7.67 ± 0.39"}
{"sequence": "TAAATTGGTGCAAAGTGTACATATATATCTTTCCTA [XGTACX_site5458]", "gcPBM binding intensity (ln)": 10.2}
{"sequence": "AAATATCAACTCAAATGTACAAATCACAAAAATGTA [XGTACX_site5344]", "gcPBM binding intensity (ln)": "7.49 ± 0.43"}
{"sequence": "ATATATGATGTATTTGTGCACATATATATATTATTA [GTGCAC_site9471]", "gcPBM binding intensity (ln)": "10.4 ± 0.11"}
{"sequence": "TATACTCATGGACACACACACATACACAGACATACA [CACACA_site5024]", "gcPBM binding intensity (ln)": "8.07 ± 0.32"}
{"sequence": "AAACGGGAGAAATAAAAATAAAAATAATAAAACAAA [XGTACX_negctrl_site586]", "gcPBM binding intensity (ln)": "7.58 ± 0.55"}
{"sequence": "TTCATATATAATTGTACACACAAAAACGACATTGTG [CACACA_site2074]", "gcPBM binding intensity (ln)": "7.99 ± 0.3"}
{"sequence": "TAAATATGAGGGAACACACACATGATATATAAATTC [CACACA_site2400]", "gcPBM binding intensity (ln)": "7.83 ± 0.7"}
{"sequence": "GGAAATAAAATTAAATGTACGAAAACTCATTAAATT [XGTACX_site4274]", "gcPBM binding intensity (ln)": "7.45 ± 0.66"}
{"sequence": "GTATCAAAAGAATACACACACACATACCTATAAATA [CACACA_site7737]", "gcPBM binding intensity (ln)": "7.76 ± 0.47"}
{"sequence": "AAAGGAAAAAAAGTAGCACACAAATATTTATAATAT [CACACA_site8772]", "gcPBM binding intensity (ln)": "7.88 ± 0.69"}
{"sequence": "TGATATCTTAAGAAATGTACAAAGATATAACCATTT [XGTACX_site1913]", "gcPBM binding intensity (ln)": "7.54 ± 0.71"}
{"sequence": "ATTTTAATAAAATATGTACACACATACACCCATATA [CACACA_site8326]", "gcPBM binding intensity (ln)": "8.15 ± 0.34"}
{"sequence": "CATACATAAATATAAACATGCATATATTTTTTTTAT [TGCATGCA_site616]", "gcPBM binding intensity (ln)": "7.79 ± 0.73"}
{"sequence": "TAAATAAAAAAAAATACACACATCTATATAAAATAT [CACACA_site3774]", "gcPBM binding intensity (ln)": "7.46 ± 0.7"}
{"sequence": "GATATTTTTATTTGTTGTACTTAAGATAATAAATGA [XGTACX_site2891]", "gcPBM binding intensity (ln)": "7.98 ± 0.31"}
{"sequence": "AAAAAAAAAAAAATACGTACACAAAAAATTGCAAAG [XGTACX_site5663]", "gcPBM binding intensity (ln)": "8.32 ± 0.2"}
{"sequence": "AATATATTAAAAAAGCGTACAAGAATTGGAAAATGG [XGTACX_site6576]", "gcPBM binding intensity (ln)": "8.21 ± 0.58"}
{"sequence": "TGTATAACCTGTGTTACACACATTAAAATTTATATA [CACACA_site4449]", "gcPBM binding intensity (ln)": "7.67 ± 0.46"}
{"sequence": "ATAAATGTGTTTATTTAACACACAAAAGAAAAAATA [CACACA_site8589]", "gcPBM binding intensity (ln)": "7.75 ± 0.73"}
{"sequence": "TTTTTAGTAACATATAGTACATATATATATATATGT [XGTACX_site4780]", "gcPBM binding intensity (ln)": "8.07 ± 0.42"}
{"sequence": "TTAATACAAATAAAAAGTACAAGTATCGAACTACTA [XGTACX_site6308]", "gcPBM binding intensity (ln)": "7.48 ± 0.4"}
{"sequence": "ATAATATGAAACTCGTACGAGGTTGTCCCAAATATA [CACACA_negctrl_site1350]", "gcPBM binding intensity (ln)": "7.8 ± 0.64"}
{"sequence": "TTATTTTTTCTTCAAATGTGAATTATTCATTTATTT [TGCATGCA_negctrl_site545]", "gcPBM binding intensity (ln)": "7.59 ± 0.49"}
{"sequence": "ATATATTATCAACTTACACACAGAAAAATATAATAA [CACACA_site293]", "gcPBM binding intensity (ln)": "7.72 ± 0.45"}
{"sequence": "GATATGTAAATAATATGTACATATTTATATTGTATT [XGTACX_site4052]", "gcPBM binding intensity (ln)": "7.7 ± 0.35"}
{"sequence": "TTTAAAGGTGATAAAACACACGATTTAGAAATGTAT [CACACA_site3161]", "gcPBM binding intensity (ln)": "8.04 ± 0.52"}
{"sequence": "AAAAAGAATGTGAACACACACATTGAATATAATTTA [CACACA_site1262]", "gcPBM binding intensity (ln)": "7.51 ± 0.42"}
{"sequence": "AAAAAAAAAACACACACATGCACATCATATTATATA [TGCATGCA_site133]", "gcPBM binding intensity (ln)": "8.05 ± 0.15"}
{"sequence": "TCCAATTCTTTATTTTGTACACATTATGTGCATATG [XGTACX_site6290]", "gcPBM binding intensity (ln)": "8.73 ± 0.057"}
{"sequence": "GTTGTTATATAAAGGAGTACATAATAACACAAATAT [XGTACX_site615]", "gcPBM binding intensity (ln)": "8.38 ± 0.48"}
{"sequence": "TTTTCTTGTAGTATAACAAAATATAGTAATATATAT [GTGCAC_negctrl_site609]", "gcPBM binding intensity (ln)": "7.86 ± 0.45"}
